In all, about 33,000 sequences were measured (“E-score (-0.5 to 0.5)”: median about -0.043, highest 2% from about 0.37 on). This is one part of the list.
Molecular target: T1, Upc2 (UniProt Q12151)
T1 sequence: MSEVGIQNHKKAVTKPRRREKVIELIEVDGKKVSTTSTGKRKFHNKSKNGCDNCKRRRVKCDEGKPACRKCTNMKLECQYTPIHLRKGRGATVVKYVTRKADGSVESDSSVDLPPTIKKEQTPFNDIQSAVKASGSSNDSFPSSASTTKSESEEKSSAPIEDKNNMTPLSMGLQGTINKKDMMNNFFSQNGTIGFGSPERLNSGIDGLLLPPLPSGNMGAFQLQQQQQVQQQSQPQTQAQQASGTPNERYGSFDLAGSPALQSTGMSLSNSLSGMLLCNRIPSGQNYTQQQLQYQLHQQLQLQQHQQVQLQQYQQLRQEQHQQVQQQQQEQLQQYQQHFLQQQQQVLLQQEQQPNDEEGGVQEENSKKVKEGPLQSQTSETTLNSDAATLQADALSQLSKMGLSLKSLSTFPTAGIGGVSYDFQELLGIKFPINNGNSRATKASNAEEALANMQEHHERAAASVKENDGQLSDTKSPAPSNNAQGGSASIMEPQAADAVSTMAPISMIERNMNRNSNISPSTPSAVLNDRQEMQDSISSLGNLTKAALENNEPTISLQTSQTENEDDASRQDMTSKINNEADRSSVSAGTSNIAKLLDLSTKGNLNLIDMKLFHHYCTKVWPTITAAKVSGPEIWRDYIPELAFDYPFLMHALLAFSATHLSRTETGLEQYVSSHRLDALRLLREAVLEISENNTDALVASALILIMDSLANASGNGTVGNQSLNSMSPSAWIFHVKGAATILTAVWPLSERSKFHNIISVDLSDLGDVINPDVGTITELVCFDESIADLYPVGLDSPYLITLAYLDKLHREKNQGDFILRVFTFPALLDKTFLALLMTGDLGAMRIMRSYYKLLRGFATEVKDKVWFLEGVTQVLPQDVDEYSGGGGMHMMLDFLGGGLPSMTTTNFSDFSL
Test: PBM E-score (8-mer binding enrichment) (E-score (-0.5 to 0.5)); higher = stronger / more preferred TF binding; most listed sequences are background and not binding sites
Conditions: protein concentration: 200 nM; construct: GST-full length
Outline: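 Using PURExpress in vitro transcription/translation, GST-tagged yeast transcription factors were made in full-length or DNA-binding-domain form. These were applied at about 100-200 nM to double-stranded universal all-10-mer Agilent arrays, and bound protein was detected with fluorescent anti-GST. Scans were normalised with masliner before the Universal PBM Analysis Suite assigned E-scores to ungapped eight-base words pooled with their reverse complements.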

| Sequence | PBM E-score |
| --- | --- |
| GCTCAAGA | -0.206 |
| CTGTATTC | 0.0741 |
| GGTGTGTA | 0.0581 |
| CCGAATCC | 0.141 |
| CCGATGAG | -0.191 |
| CCATTGCC | -0.162 |
| CGCTCGCC | 0.0259 |
| AGTCTCCA | -0.0495 |
| CTCCGCGA | -0.101 |
| CAGGACGG | -0.164 |
| ACAGTGCT | 0.141 |
| ATCTCAAT | 0.108 |
| ACGCTAAT | 0.12 |
| TAACCTTA | -0.166 |
| AATATACA | 0.0677 |
| GGTGGTGA | 0.0398 |
| CGTGTTCA | -0.00782 |
| ATTTAAAC | 0.241 |
| AGTCACTG | -0.0748 |
| CTCCTTAA | -0.22 |
| GGCTGGAC | -0.11 |
| ACGAACTC | 0.325 |

| Sequence | PBM E-score |
| --- | --- |
| ATATGTCG | 0.152 |
| GCCAGCGA | -0.219 |
| AGACCACT | -0.0709 |
| AATAAGTC | -0.164 |
| AACTTATT | 0.0645 |
| AACGGTTA | 0.319 |
| ACACTAGC | -0.181 |
| AACAGAGA | -0.236 |
| ATGGGGCC | -0.349 |
| CTATGTTC | -0.00082 |
| AATAGTAT | 0.0304 |
| CAATGAAG | -0.0741 |
| CCATCAAC | 0.0474 |
| CACTTCGC | 0.0178 |
| GCCTGTAC | 0.222 |
| CCGGCTCG | 0.0536 |
| CGACGAGA | 0.0503 |
| CATGAAAA | -0.0249 |
| GGGAACCC | -0.0648 |
| AACTGTAG | -0.127 |
| AAGTATCC | 0.128 |
| CGGACACG | 0.227 |

| Sequence | PBM E-score |
| --- | --- |
| AAATACAA | 0.208 |
| CGGGGGTC | -0.15 |
| CACAACCA | -0.063 |
| TACATCAA | -0.138 |
| AGATTTGG | -0.0954 |
| CCGACTCG | 0.0772 |
| AAGCGGCG | 0.131 |
| GAGTGGGC | -0.0571 |
| AATTCTGC | -0.0392 |
| GCAGAGCC | -0.0234 |
| CTATTGCC | -0.25 |
| AACACTGA | 0.0163 |
| AACGGAAG | 0.186 |
| CCGTTCAA | 0.322 |
| GTAATCCA | -0.113 |
| AGAATCAA | 0.0541 |
| CCGAAACC | 0.055 |
| ACTCCATG | -0.168 |
| CACGCTAG | -0.195 |
| GGGCTAAC | -0.231 |
| AACTCATC | -0.044 |
| CGGCGTGC | -0.18 |

| Sequence | PBM E-score |
| --- | --- |
| GTTGCCCA | 0.0762 |
| AGCTTGTG | -0.256 |
| GTGCTACA | -0.31 |
| GGATCCCC | -0.202 |
| CATCTGCA | -0.216 |
| CTTGGCCC | -0.171 |
| ATACTCCC | -0.196 |
| AAGTAGTA | 0.0101 |
| CGCGAATC | 0.108 |
| ACCAAGAA | -0.0287 |
| TTCGAAAA | 0.149 |
| ATTTAGCA | -0.0363 |
| TAGCAGAA | 0.012 |
| AGGATGAG | -0.143 |
| ACGTGGAA | 0.111 |
| AGGGAGAC | -0.076 |
| CCTCTGGC | -0.128 |
| GAGGGAGC | -0.193 |
| CCGGCGAG | 0.0189 |
| AGGTTTAA | -0.0168 |
| CGTCAGTA | -0.105 |
| AAAACGAG | 0.316 |

| Sequence | PBM E-score |
| --- | --- |
| ATCCCCTG | -0.0998 |
| ACTGCTTG | -0.219 |
| ACTACAGA | 0.155 |
| TGATATAA | -0.14 |
| ATTAGTTA | -0.0252 |
| CAGCCGAC | -0.138 |
| TCCTTAGA | -0.279 |
| CACGTCCA | 0.0152 |
| AGACCTGA | -0.134 |
| ATCGCGCA | -0.11 |
| GAACACAA | 0.162 |
| GTCATCAC | -0.0856 |
| GCCTCTCC | -0.292 |
| AATATTAG | 0.21 |
| ATGCTGAA | -0.151 |
| AAGCCATC | -0.0205 |
| ACAGTAGG | 0.0839 |
| AGCGCACG | 0.139 |
| ATTCAGTG | -0.126 |
| AGACTATC | -0.0269 |
| TAGGGAGA | -0.217 |
| AGGCGTGC | -0.0583 |

— the supplement of paper PMC3334620
